Experimental data reported in PubChem BioAssay AID624296 (National Center for Advancing Translational Sciences (NCATS), 2012).
Values joined by “and” are separate entries in the source; they are usually repeats but may differ in a detail not shown here. Equal entries are not always repeated. In all, about 350,000 compounds went through this assay and about 9,900 (2.8%) were called active. Inconclusive means that the source gave no clear call. Such entries were picked first, then a sample of the others. The call rests on the fitted dose curve; in most records, active means well fitted activation curve with a large enough effect; inconclusive means small, poorly fitted or top-dose-only effect; inactive means no such curve, though single readings can be large or run the other way. Potencies of inconclusive entries are doubtful fits and often do not repeat.

Test: A quantitative high throughput screen for small molecules that induce DNA re-replication in MCF 10a normal breast cells. Further: nearly all actives have a fitted effect of over 50% in size. On activity, positive = re-replication: % of control where 0% means no effect.
Settings: MCF 10A DNA re-replication, Hoechst nuclear intensity, 48 h; activity, positive = re-replication: at 46.1 µM (top of the series)
Potency means the concentration at half of the fitted maximal effect; tags describe the fitted curve by direction and shape.

Row | SMILES | Potency | activity, positive = re-replication
1 | O=C(C(=O)N1CC=C(c2ccccc2)CC1)c1c[nH]c2ccccc12 | inconclusive: 29.1 µM [activator, single point] | 
2 | O=C(CNC(=O)c1cccs1)OCC(=O)c1ccc([N+](=O)[O-])cc1 | inconclusive: 32.6 µM [activator, single point] | 
3 | Cc1ccc(C2=NCC(=O)Nc3ccc(Br)cc32)cc1 | inconclusive: 5.8 µM [activator, single point] | 
4 | OC(c1ccccc1)(c1ccc(Cl)cc1)C1CN2CCC1CC2 (stereo unspecified) | inconclusive: 29.1 µM [activator, partial curve, poor fit] | 
5 | CCOC(=O)c1c(C=O)c2ccccc2n1Cc1ccccc1F | inconclusive: 29.1 µM [activator, partial curve, poor fit] | 
6 | COc1ccc(C(O)CNC(C)C)c(F)c1OC (stereo unspecified) | inconclusive: 0.0058 µM [activator, full curve, poor fit] | 
7 | CCC(CC)C1C(C#N)=C(N)Oc2c1c(=O)oc1ccccc21 (stereo unspecified) | inconclusive: 18.4 µM [activator, single point] | 
8 | CCOC(=O)CC(SP(=S)(OC)OC)C(=O)OCC (stereo unspecified) |  | inactive: 1.81%
9 | C/C(=N\N=C(N)N)c1ccccc1 | inconclusive: 2.91 µM [activator, single point] | 
10 | COc1cc2c3c(c1OC)Oc1ccc(cc1)C[C@H]1c4c(cc(OC)c(OC)c4Oc4ccc(cc4)C[C@@H]3N(C)CC2)CCN1C | inconclusive: 29.1 µM [activator, single point] | 
11 | O=C(/C=C/c1c[nH]c2ccccc12)c1c(O)n(CCc2ccccc2)c(=O)[nH]c1=O | active: 16.4 µM | 
12 | O=C1OC(c2ccc(O)c(S(=O)(=O)O)c2)(c2ccc(O)c(S(=O)(=O)O)c2)c2c(Br)c(Br)c(Br)c(Br)c21 |  | inactive: -5.48%
13 | CC1=CC(=Cc2sc3ccccc3[n+]2C)C=C(C)O1 | inconclusive: 6.51 µM [activator, full curve, poor fit] | 
14 | CCN(CC)CCNC(=O)c1nn(-c2ccc(C)cc2)c(=O)c2c1c1ccccc1n2C | inconclusive: 22.4 µM [activator, single point] | 
15 | C=CCN1C(=O)/C(=C/c2ccc(Br)s2)C(=O)NC1=S | inconclusive: 23.1 µM [activator, single point] | 
16 | COc1ccc(C(=O)CC2C(=O)N(C)C(=O)N(C)C2=O)cc1 | inconclusive: 25.9 µM [activator, single point] | 
17 | COc1ccc(C)cc1NC(=O)c1c(C)nn(Cc2ccccc2)c1Cl | inconclusive: 25.9 µM [activator, partial curve, poor fit] | 
18 | CC1=NN(c2ccccc2)C(=O)C1/C=C1\C(=O)NC(=O)N(c2cc(C)cc(C)c2)C1=O (stereo unspecified) |  | inactive: 0.175%
19 | CCn1c(O)c(N=Nc2cccc(S(=O)(=O)N3CCOCC3)c2)c(=O)n(CC)c1=S | inconclusive: 16.4 µM [activator, partial curve, poor fit] | 
20 | O=C1CN(O)C(c2ccccc2)=c2cc(Cl)ccc2=N1 | inconclusive: 23.1 µM [activator, partial curve, poor fit] | 
21 | CC(C)c1ccc(NC(=O)N2C[C@H]3C[C@@H](C2)c2cccc(=O)n2C3)cc1 |  | inactive: 21.8%

Row | SMILES | Potency | activity, positive = re-replication
22 | COC(=O)C1=C(c2ccc(-c3ccccc3)c(F)c2)C[C@@H]2CC[C@H]1N2C(=O)NCc1cccc2ccccc12 | inconclusive: 16.4 µM [activator, single point] | 
23 | COC(=O)C1=C(c2ccccc2OCc2ccccc2)C[C@@H]2CC[C@H]1N2C(=O)NCc1ccc(F)cc1 |  | inactive: 25.2%
24 | CN1C(=O)CN=C(c2ccc(Cl)cc2)c2cc(Cl)ccc21 | inconclusive: 23.1 µM [activator, partial curve, poor fit] | 
25 | N#CC1(N2CCCCC2)CCCCC1 |  | inactive: 7.9%
26 | O=C(CCN1CCOCC1)Nc1ccc(Br)cc1C(=O)c1ccccc1 | inconclusive: 29.1 µM [activator, single point] | 
27 | Clc1ccc(OCCCN2CCCC2)cc1Cl | inconclusive: 20.6 µM [activator, partial curve, poor fit] | 
28 | CC(=O)C1CCC2C3CCC4CC(O)CCC4(C)C3CCC12C (stereo unspecified) | inconclusive: 18.4 µM [activator, single point] | 
29 | NCCc1c(Cc2ccccc2)[nH]c2ccccc12 | inconclusive: 29.1 µM [activator, single point] | 
30 | O=C(NCCc1ccccc1)[C@@H]1CC=C[C@@H]2CCN(Cc3ccc(Cl)c(Cl)c3)C(=O)[C@@H]21 | inconclusive: 16.4 µM [activator, single point] | 
31 | CN(CC(=O)Nc1cccc(F)c1)CC(=O)Nc1cccc(S(=O)(=O)N(C)c2ccccc2)c1 | inconclusive: 16.4 µM [activator, single point] | 
32 | C=C1C(O)(c2ccccc2)C2CC[N+]1(C)CC2 (stereo unspecified) | inconclusive: 0.82 µM [activator, full curve, poor fit] | 
33 | S=c1[nH]nc(-c2ccccc2)n1CC1CCCO1 (stereo unspecified) | inconclusive: 3.26 µM [activator, full curve] | 
34 | N[C@@H](Cc1c[nH]c2ccccc12)c1nnc(SCc2c(F)cccc2Cl)o1 | inconclusive: 23.1 µM [activator, single point] | 
35 | S=c1[nH]c2ccccc2[nH]1 |  | inactive: 0.595%
36 | COC(=O)C1=C(c2ccccc2OCc2ccccc2)C[C@@H]2CC[C@H]1N2C(=O)NCCOc1ccc(OC)cc1 | active: 6.51 µM | 
37 | CC1CC(C)(O)CC(C(O)CC2CC(=O)NC(=O)C2)C1=O (stereo unspecified) | inconclusive: 0.731 µM [activator, full curve, poor fit] | 
38 | CN(C)S(=O)(=O)c1cc(NC(=O)COC(=O)Cc2ccccc2)ccc1Cl |  | inactive: 0.151%
39 | O=c1c2ccccc2[se]n1-c1ccccc1 | inconclusive: 29.1 µM [activator, single point] and inconclusive: 11.9 µM [activator, full curve, poor fit] and inconclusive: 23.1 µM [activator, single point] | 
40 | c1ccc(CCNCc2ccccc2)cc1 |  | inactive: -2.36%
41 | Cc1cccc([N+](=O)[O-])c1 |  | inactive: -1.87%
